Measured values published in the antibiotic and cytotoxicity screens of Wong et al. (2023).
This is one part of the list.

What was measured:
[1] = system: HSkMC (human skeletal muscle cells); test: cytotoxicity call (relative viability < 0.9); conditions: 10 µM
[2] = system: HepG2; test: cytotoxicity call (relative viability < 0.9); conditions: 10 µM
[3] = system: S. aureus RN4220; test: growth inhibition call (relative growth <= 0.2); conditions: 50 µM

| SMILES | cytotoxicity call [1] | cytotoxicity call [2] | growth inhibition call [3] |
| --- | --- | --- | --- |
| C[C@@H]1CN([C@@H](C)CO)C(=O)c2cc(NS(=O)(=O)c3ccc(F)cc3)ccc2O[C@@H](C)CCCCO[C@@H]1CN(C)Cc1ccc2c(c1)OCO2 | inactive | inactive | inactive |
| COc1cccc(C#Cc2cnc3c(c2)C(=O)N([C@@H](C)CO)C[C@@H](C)[C@@H](CN(C)C(=O)C2CCOCC2)O3)c1 | inactive | inactive | inactive |
| C[C@@H]1CN([C@H](C)CO)C(=O)c2cc(NC(=O)Nc3ccccc3)ccc2O[C@@H](C)CCCCO[C@@H]1CN(C)CC1CCCCC1 | inactive | inactive | inactive |
| CCS(=O)(=O)N[C@@H]1CC[C@@H](CC(=O)NCc2ccccn2)O[C@@H]1CO | inactive | inactive | inactive |
| O=C(Nc1cccc2cccnc12)[C@@H]1[C@H](c2cc(Cl)cc(Br)c2)CC(=O)N1C(=O)OCc1ccccc1 | inactive | active | inactive |
| O=C(C[C@H]1C=C[C@@H](NC(=O)Nc2ccc3c(c2)OCO3)[C@@H](CO)O1)NCCCN1CCOCC1 | inactive | inactive | inactive |
| C[C@H]1CN([C@@H](C)CO)C(=O)Cc2cc(NC(=O)C3CC3)ccc2O[C@H]1CN(C)C(=O)Nc1ccc2c(c1)OCO2 | inactive | inactive | inactive |
| C[C@@H]1CN([C@H](C)CO)C(=O)c2cc(NC(=O)Nc3ccc4c(c3)OCO4)ccc2O[C@@H](C)CCCCO[C@H]1CN(C)Cc1ccncc1 | inactive | inactive | inactive |
| C[C@@H]1CN([C@H](C)CO)C(=O)c2cc(NC(=O)Nc3cccc4ccccc34)ccc2O[C@@H](C)CCCCO[C@H]1CN(C)S(=O)(=O)c1ccc(Cl)cc1 | inactive | inactive | inactive |
